According to PubChem BioAssay AID1508624 (National Center for Advancing Translational Sciences (NCATS), 2021):
Screen size: about 48,000 compounds; about 120 (0.25%) were called active. About 4% were inconclusive and are not listed. The call rests on the fitted dose curve; in most records, active means well fitted activation curve with a large enough effect; inconclusive means small, poorly fitted or top-dose-only effect, or another doubt; inactive means no such curve, though single readings can be large or run the other way. The list shows a part of the results.

experiment: Primary qHTS for Identification of Small Molecule Activators of Huntingtin-Antisense Promoter Activity; conditions: HEK293 HTT-AS promoter firefly luciferase reporter, 24 h; series mostly up to 57.5 µM; activity change, positive = activation: at the top concentration; further: nearly all actives have a fitted effect of over 55% in size
How it was run: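 Quantitative HTS used concentration series of up to 57.5 uM final on HEK293 luciferase reporter cells, 24 h at 37 degrees C. Readout was Dual-Glo firefly luminescence.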

Activity change, positive = activation, inactive:
Cc1ccc(CNC(=O)CCS(=O)(=O)c2cc3c(cc2Cl)NC(=O)CO3)cc1 -7.88%
COc1ccc(N2CCN(CC(O)COc3ccc(C)cc3C)CC2)cc1 (stereo not drawn) 2.56%
CC1=C(c2ccc(C)cc2)S(=O)(=O)NC1=NCCCN1CCN(c2cc(C)ccc2C)CC1 -35.2%
Cc1ccc(Cl)cc1N1CCN(C(=O)CN2C(=O)COc3ccc(S(=O)(=O)N4CCC(C)CC4)cc32)CC1 -17.4%
COc1ccc(N2CCN(c3ncnc4c3cnn4-c3ccc(C)c(Cl)c3)CC2)cc1 17.9%
CC(C)(C)C(=O)NC1(C(F)(F)F)NC(=O)N(c2ccc(F)cc2)C1=O (stereo not drawn) -8.13%
O=C(NCc1ccc(Cl)cc1)c1ccc(NC(=O)N2CC3CCCN3c3ccccc32)cc1 (stereo not drawn) -23.8%
Cc1nn(C(=O)c2ccccc2)c(C)c1S(=O)(=O)N1CCOCC1 -11.1%
COc1ccc(CNC(=O)c2ccc(-c3nc(CSc4ccc(C)cc4)c(C)o3)cc2)cc1OC 0%
CCC(=O)N1CCc2cc(S(=O)(=O)NC(C(=O)NCc3ccccc3Cl)C(C)C)ccc21 (stereo not drawn) 20.1%
Cc1c(C(=O)NCc2ccccc2Cl)sc2nc(-c3ccc(F)cc3)cn12 -0.334%
O=C(NCc1ccc(F)cc1)c1cc(Sc2ccc(F)cc2F)nc2ccccc12 -21%
CCOC(=O)CN(Cc1ccccc1)C(C(=O)NC1CCCCC1)c1ccc(C)cc1 (stereo not drawn) -24.2%
CCOC(=O)C1CCN(C(=O)Cn2c(-c3cccs3)cc3cc(Cl)ccc32)CC1 -30.3%
CCOc1ccccc1CNS(=O)(=O)c1ccc2c(c1)C(C)(C)C(=O)N2C -29.9%
CNc1nc(Nc2ccc(C(=O)N3CCOCC3)cc2OC)ncc1Cl -8.87%
COc1ccc(-c2oc3cc(OC)ccc3c2C(=O)c2ccc(C#N)cc2)cc1 -32.6%
COc1ccc(N2C(=O)CSC23C(=O)N(Cc2ccccc2F)c2ccccc23)cc1Cl (stereo not drawn) -37.7%
O=S(=O)(NCc1ccccc1Cl)c1ccc(-c2cnc(C3CC3)o2)cc1 -34.3%
Cc1c(CC(=O)N2CCCCC2)c(=O)oc2cc3occ(C(C)(C)C)c3cc12 -6.93%
COc1ccc(-c2cn3cccnc3n2)cc1NC(=O)COc1ccccc1 -3.86%
CCC1=Nc2cc(C(=O)NCc3ccccc3OC)ccc2Sc2ccc(Cl)cc21 -14.6%
COCCNc1ncnc2c1cnn2-c1cc(Cl)ccc1C 1.96%
Cn1nc(C(=O)NCc2cccc(Cl)c2)c2c1-c1ccccc1SC2 -3.37%
CN1CCN(C(c2ccc(Cl)cc2Cl)c2sc3nc(-c4ccco4)nn3c2O)CC1 (stereo not drawn) 2.85%
Cc1ccc(S(=O)(=O)C2(C(=O)Nc3ccc(C)c(Cl)c3)CC2)cc1 -19.4%
CCC(=O)N1c2ccccc2CC1C(=O)NCCc1ccccc1Cl (stereo not drawn) -5.49%
Cc1ccc(OCC(=O)Nc2ccc(OCc3cc(=O)n4ccsc4n3)cc2)cc1 3.04%
COC(=O)c1cc(NC(=O)[C@H](CCS(C)(=O)=O)N2Cc3ccccc3C2=O)cc(C(=O)OC)c1 -18.5%
CCc1ccc(-c2nc3cc(NC(=O)c4cc5ccccc5cc4OC)ccc3o2)cc1 -7.18%
COc1ccc(Br)c(C(=O)Nc2cc3c(cc2N2CCCCC2)n(C)c(=O)c(=O)n3C)c1 -20.6%
CCc1cc(C(=O)NC(C)c2ccccc2)no1 (stereo not drawn) 4.04% [at 11.5 µM, percent change from vehicle, -100% = no light]
COc1cc2c(cc1OC)C(COc1ccc(F)cc1)N(C(=O)c1ccc(S(=O)(=O)N3CCCC3)cc1)CC2 (stereo not drawn) -12.4%
COc1cc(C2CC(=O)N(Cc3ccc(F)cc3)c3ccccc3S2)cc(OC)c1OC (stereo not drawn) -62.1%
O=C(CCCn1c(=O)c2ccccc2n(Cc2ccc(F)cc2Cl)c1=O)NCCc1ccc(Cl)cc1 -10.1%
COC(=O)c1ccccc1NC(=O)c1nc(S(=O)(=O)Cc2cccc(C)c2)ncc1Cl 0.0775%
Cc1cccc(NC(=O)c2c(C)cc(C)nc2SCC(=O)Nc2c(C)cc(C)cc2C)c1 -18%
CC(=O)Nc1ccc(NC(=O)c2ccc(COc3ccc(Cl)cc3Cl)o2)cc1 6.78%
CCOc1ccc(-c2cc(-c3nc(-c4cc(OC)c(OC)c(OC)c4)no3)[nH]n2)cc1Cl -3.63%
Cc1ccc(-n2nc(CO)c(C(=O)NCc3cccs3)n2)cc1C -0.941%
Cn1c(=O)oc2cc(S(=O)(=O)N3CCC(C(=O)NCc4ccc(F)cc4)CC3)ccc21 -16.2%
CCOC(=O)C1=C(C)NC(C)=C(C(=O)OC)C1c1cccc(Cl)c1Cl (stereo not drawn) -17.8%
COc1ccc(Nc2nc3cc(Cl)c(Cl)cc3n3cnnc23)cc1Cl -2.38%
O=C(Nc1nnc(S(=O)(=O)N2CCCC2)s1)c1ccccc1Br -13%
Cc1ccccc1Cn1nnc2c(=O)[nH]c(C3CCCN(C(=O)c4ccc(F)cc4)C3)nc21 (stereo not drawn) -14.7%
CCOC(=O)c1ccc(NC(=O)CSc2nnc(CNC(=O)c3ccc(OC)cc3)n2CC)cc1 0.179%
COc1ccc(NC(=O)CC2C(=O)N(c3ccc(C)cc3)C(=O)N2Cc2ccc3c(c2)OCO3)cc1 (stereo not drawn) -18.8%
CCC(C)n1c(SCc2c(F)cccc2Cl)nc2ccsc2c1=O (stereo not drawn) -28.6%
COc1ccc(N2CCN(S(=O)(=O)c3ccc4c(c3)CCCN4C(C)=O)CC2)cc1 -20.8%
CC1CCN(CCCNC(=O)c2cn(C)c3ccc(S(=O)(=O)N(C)C4CCCCC4)cc3c2=O)CC1 2.25%
COc1cc(N2C(=O)CSC23C(=O)N(Cc2ccc(C)cc2)c2ccccc23)cc(OC)c1OC (stereo not drawn) -22%
Cc1ccc2c(c1)N(C(=O)CCC(=O)NCc1cccs1)CCO2 1.51%
Cc1ccc(C)c(CN2C(=O)c3ccccc3S(=O)c3ccc(C(=O)N4CCN(c5ccccc5F)CC4)cc32)c1 (stereo not drawn) -21.2%
C=C1C(=O)[C@@]23C(CC[C@@H]1[C@H]2O)[C@@]12CO[C@]3(O)[C@@H](O)[C@@H]1C(C)(C)CC[C@@H]2O (stereo partly drawn) -93.3%
CC(C)(C)OC(=O)N1CCC(c2c(C(=O)NCCCN3CCc4ccccc4C3)cnn2-c2ccccc2)CC1 -11.4%
Cc1ccc(N2CC(NC(=O)c3ccc(S(=O)(=O)N4CCCC4)cc3)CC2=O)cc1 (stereo not drawn) -16.9%
COc1ccc(-c2c(C)c3cc(OC(=O)N4CCOCC4)ccc3oc2=O)cc1 -19.8%
CCOc1ccccc1NC(=O)Cn1c(=O)n(CCCC(=O)NCCc2ccc(C)cc2)c(=O)c2ccccc21 -12%
